# Measurements: the supplement of paper PMC11417369
# The other results are listed elsewhere or left out.
# System: PfSIP2 AP2 domain 1 (GST-tagged)
# Assay: gcPBM binding intensity (ln(normalized median fluorescence intensity)); higher = stronger DNA binding
# Procedure, shortened: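 GST-tagged P. falciparum DNA-binding domains, expressed in E. coli (about 25 μg on average), were applied for 1 h to an Agilent 4 × 180k array of primer-extended double-stranded 36-bp intergenic genomic probes plus negative controls. The binding buffer was 1× PBS with 1% milk, 0.2 mg/ml BSA, 0.5% salmon testes DNA and 0.03% Triton X-100. Bound protein was detected with Alexa488 anti-GST antibody and scanned at 488 nm. Binding intensity is the highest Masliner-normalised natural-log median intensity across replicate spots of either probe orientation.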
row,Sequence,gcPBM binding intensity (ln)
1,ATAATTAACAAATACACACACACACCCCCACAAAAA [CACACA_site518],8.73
2,AGTATTCATAAAAATACACACATGGAAAAATAAACT [CACACA_site6796],7.1
3,AAATTAAAATATAATACACACATAAAAAAAAAAAAA [CACACA_site4183],6.86
4,TATATATTTTTTTTTTGTACTCACAATATATGTATG [XGTACX_site8024],6.99
5,TATGTGTAATATTTTTGTACAGAAAAAAAAAAAAAA [XGTACX_site7075],7.14
6,AAAAAAAAAAAAAACACACACATGCACATCATATTA [CACACA_site4467],7.43
7,TCATTTCACAGACACACACACACAATATATTTCCTT [CACACA_site9295],7.17
8,ATATTTTTATTAGTAGTGCAATTTAGTGTATATATA [GTGCAC_site9542],8.39
9,AAAAAAAAAATTAAAACATGCATAAATAAATATATT [TGCATGCA_site866],6.71
10,AAAAAAAAAAAATATACACACTAATATATTTTTTTA [CACACA_site4604],6.97
11,TATTTAAAAAGAAAAAAAAAAAAAAAAATACATATA [CACACA_negctrl_site164],6.59
12,TATTAAATTTATCGGAGTACATTTAAATGTATATAC [XGTACX_site7975],7.13
13,TATATACGCAAACACACACACACATACACCCACATA [CACACA_site1724],7.16
14,TATTACTATGTTATAACTTTTTTAAACGTGATCATA [TGCATGCA_negctrl_site128],6.8
15,CTATTTATTTTTGATGCATGCCAAATATAGAAAAAA [TGCATGCA_site368],7.08
16,CGTATAAATATACGTGCATGTAACTTTTTCTATATT [TGCATGCA_site981],8.32
17,TAGTAGTTATCACTAACATGCAATAATATTATTTAA [TGCATGCA_site161],6.89
18,TGACTGTAGATATTTTGTACATAACCTAATATATAT [XGTACX_site970],7.18
19,TACAGTTCAATGAAGGTGCAATTAATATATAAAATA,10.2
20,ATAATATAATACGAAGGTACACATTTTCTTAATATA [XGTACX_site7947],6.78
21,TTATGTACAATTTCTTCTTTCTTTTTTCCTAAAGAC [CACACA_negctrl_site1193],6.92
22,TTTTTTTTTTTTTTTTGTACACATAATATGAATAAT [XGTACX_site2661],7.21
23,ATAACATATATATATACACACACATATATATATGAA [CACACA_site7983],7.22

row,Sequence,gcPBM binding intensity (ln)
1,ATATATTTTTTGAATACACACATATTATAGGTAATA [CACACA_site6709],7.03
2,TTTTTTTTTCTTTTCAAACACACAATTGGTATATAT [CACACA_site3321],6.82
3,TTTTCCTTTTTGGAATGTACACATATATATTAAATG [XGTACX_site4700],6.89
4,AAATATAATATATGCACACATACATACATATATATA [CACACA_site104],7.73
5,TAATTAAATATTTTCCTACAATTAATAAGAAAAGGA [XGTACX_negctrl_site565],7.02
6,AAGAATAATAACAAATGTACTTATATAAAGTATTAT [XGTACX_site2336],7.08
7,TATTAAGAAGAAAATTCACACATTTGTACCTCTCTT [CACACA_site4822],6.62
8,CAGCTCTTAAAAATTACACACATATACGCATATATA [CACACA_site3267],7.15
9,TTACAAAAATGTGGTTGTACACAAACAAAAAAAATA [XGTACX_site8506],7.06
10,GAAAATAGCTAAAATACACACAATTAAAAGTTATTA [CACACA_site7614],6.62
11,TATAAATAGATATATACACACATGAAAATAAATAAA [CACACA_site7228],7.01
12,TATAATATAATATATGCACACAAATATGTATATATG [CACACA_site8664],7.15
13,AACTATATATAACTAGTGCAAAGACAATATTTTAAA,8.03
14,AAAATTTAATATAATGCACACATAAAAAAAAAAAAT [CACACA_site8425],7.69
15,TTCTTTAAAATAAATTGTACTAACATATATATATAT [XGTACX_site6045],9.61
16,TTGTTTATTTTTTATTACTATAAAGATGTTATATAT [CACACA_negctrl_site1506],7
17,TATATAAATATATATGTACACACATATACATGTTGA [CACACA_site9022],7.09
18,ATAATATCTTTATGTGTGCACATATATATATATATA,9.64
19,TTTTTTTTTTTTTTTGCACACTTGATTTGAGCTTAT [CACACA_site4042],7.41
20,AAAATAAAAATACACATTTTTTTTTTTTTTTTTTTT [TGCATGCA_negctrl_site515],8
21,TTTTTTTTTGTTTACACACCCAAATCACATACATAT [CACACA_site4052],7.26
22,TAAATAATTTATAAGTGTACTATTATTGCACGAATA [XGTACX_site7715],7.94
23,AAAAAAAACAGACACACACACATAAATATATATAAA [CACACA_site148],6.95

row,Sequence,gcPBM binding intensity (ln)
1,ATGATTTTTTCTGTATGTACATAAAAATAAAATTCT [XGTACX_site5698],7.02
2,CATTAGGTCTTTTGTACATGCAAGTGTGTGCGTAAA [TGCATGCA_site255],7.46
3,ACACATATGCATATATGTACATAATATATTAAACTT [XGTACX_site5975],7.06
4,TAAAAAATAAATATATGTACGCAATAAATGTGTTAA [XGTACX_site4043],7.13
5,AAAAAAAAAAGACACACACACACACTAATACATACA [CACACA_site6473],6.98
6,AAAAGTGATGAGACAAGTACTAACATATTATTATTA [XGTACX_site1533],6.65
7,TTTTCTGTATAAACTTGTACATATATTTCCTTGTTT [XGTACX_site5745],6.96
8,AAATATATATGTATATGTACTTATTTATTTAAAAGG [XGTACX_site4093],7.07
9,TTTATTATATATAAAAGTACACATTGTAAGGAAACA [XGTACX_site8560],7.53
10,ATACCTATTTGATGAGTGCATTATCCAATATATGTA,9.53
11,ATGTTTTACAAAAACACACAAATGAATATAAACATA [CACACA_site6667],6.88
12,AAATAAAATATCAATTAAAACAGAATTGAATTTTTA [CACACA_negctrl_site181],6.6
13,ATATGTTCTACAAAAAAGATGTCGATTTATTTTCTT [CACACA_negctrl_site1179],6.88
14,AAAAAAAAAAAAAAATGTACAAATAGTAGTTACAGA [XGTACX_site2531],7.29
15,AACATGTTAAAATAAACACACAGCTAAGGTTTTTTT [CACACA_site157],6.72
16,GCAAATGTGAAAACGTGTACACATTTTATTTAATTT [XGTACX_site8000],7.4
17,ATAATATATGTATATCCACACACATATATATATATA [CACACA_site8471],9.46
18,ATTTAAGATTTAATCACACACATATATATTATATAC [CACACA_site2907],7.01
19,AAATGTAGATATTATCGTACACATATATTTATATAT [XGTACX_site6326],7
20,TATTTGTAAATCGATACACACATATATATTAATATA [CACACA_site196],6.91
21,AAAACATACCTATATACACACATATAAATATAAATA [CACACA_site6956],7.13
22,TTTGATATAGAAAGAGCATGCAAGTTAGATAAAATA [TGCATGCA_site470],6.97
23,TATATATTAATATACACACACACATATATATATATA [CACACA_site1608],8.91

row,Sequence,gcPBM binding intensity (ln)
1,AATAAATTATTATGTACACACATAATAGTATATATA [CACACA_site1820],6.95
2,TTTCAAACTGTTCTCACACACGAAATTAGAAATGAA [CACACA_site4509],7.13
3,AAAACAAAATAGGGAACACACACATGTCAATATATA [CACACA_site8834],6.93
4,TTTTTTTTTTTTTGGTTCACACTGAAAAGAGAGATA [GTGCAC_negctrl_site439],7.25
5,TTTTGTTATTTTGAAGTGCACTTTCCACTTAATATA,11
6,CAATCATGGTTTTACACACACATGCATGTGAAAATT [CACACA_site4870],6.97
7,TCATGTTTTACAAAAACACACAAATGAATATAAACA [CACACA_site4775],7.14
8,TATATACATAGACACCCACACACAAAAAAAAAAAAA [CACACA_site8186],7
9,AATAAATAAAAATTATGTACATATATAAAAAATACA [XGTACX_site8581],7.36
10,TCGAATTTGGAAAGAAGTACATGAAGCCAACATATG [XGTACX_site5222],7.01
11,TTTGAACGAAAATACTCACACATATTTATAAACATT [CACACA_site5182],6.73
12,GTATTTTTAAATGACACACACATATATATATATATA [CACACA_site1662],9.21
13,ATTTTTCATATATATATATTAATATATATATATTAA [CACACA_negctrl_site1681],7.73
14,AAAAATATATTATATGTACACACAAAATTAAGGGAT [CACACA_site8384],7.5
15,TGAATATTTATACATGCACACTAAAATAAAGAATCT [CACACA_site5351],8.82
16,AAAATTTCTTTTTTTTGTACATATATAATAATATAT [XGTACX_site7107],6.92
17,TCTTTCTCTCTTCAAAGTACATATAATATATACTTC [XGTACX_site7982],7.15
18,CAGTTAATGTTGGTACTTTATATAAAAATGATATGA [CACACA_negctrl_site1600],7.06
19,ATAACAACATTTGATAAACACACAGAAGTATAAATA [CACACA_site8739],7.11
20,AAAATATAGTTATCAATATATAATATTTTTTTTTTA [CACACA_negctrl_site459],6.69
